The values that follow come from paper PMC7819943, “Rice protein-binding microarrays: a tool to detect cis-acting elements near promoter regions in rice”.

The other results are listed elsewhere or left out.

In the assay the target is T1, OsWOX13 (Oryza sativa, UniProt Q5QMM3 1-267).
T1 sequence: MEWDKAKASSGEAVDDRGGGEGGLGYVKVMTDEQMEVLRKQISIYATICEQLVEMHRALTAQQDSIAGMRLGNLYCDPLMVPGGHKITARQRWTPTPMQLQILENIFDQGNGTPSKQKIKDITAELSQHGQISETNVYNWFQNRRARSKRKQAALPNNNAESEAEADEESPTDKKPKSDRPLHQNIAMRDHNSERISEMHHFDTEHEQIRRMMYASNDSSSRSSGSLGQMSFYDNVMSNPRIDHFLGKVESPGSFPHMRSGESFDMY
The assay can be described thus: protein-binding microarray (RPBM); PBS, 2% BSA, 51.3 ng/ul salmon testes DNA, 50 uM zinc acetate, 200 nM TF, 25 C, 1 h; high values mean tight binding. To be noted: protein: recombinant; tags: N-terminal polyhistidine and DsRed monomer fusion (pET32a); label: CyDye5-dUTP incorporated in the synthesized complementary strand; 3' TTTTT single-stranded linker to array surface; dsDNA, one strand shown. The procedure, abridged:
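The binding signal is fluorescence intensity per array feature (arbitrary units). Readings came from an Axon 4000B scanner after a washed, 2% BSA-blocked, double-stranded custom Agilent array had been incubated for 1 h at 25 °C with 200 nM protein and 50 µM zinc acetate. The protein was a Ni–NTA-purified transcription factor fused N-terminally to polyhistidine and DsRed, expressed in E. coli BL21-CodonPlus.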
With “GCTTATGATAGAATACTGACTATAGCAATATCAGGATATACGGAGTCACCTAGTGCAG”, the binding signal is 6330 fluorescence intensity (a.u.).

Consider “TAATAATTACCCTAATAATTTGCATGTGCCAAGCTTAGATCGGAGTCACCTAGTGCAG”, for which the binding signal was 39000 fluorescence intensity (a.u.). For the sequence “TGGTGATGTGTAATTTTGTCTATAACTATTAATGTTAGGGCGGAGTCACCTAGTGCAG”, the binding signal was 18300 fluorescence intensity (a.u.). For “ACACATAATCACTATCAACTAAACACTTAAATACATCTCACGGAGTCACCTAGTGCAG”, the binding signal was 6810 fluorescence intensity (a.u.). For the sequence “AATTTAGAAAATAATCAACATGATTATAAAACAGATGAAGCGGAGTCACCTAGTGCAG”, the binding signal was 5030 fluorescence intensity (a.u.). Consider “TGCCCTTCTCTGCAGGTGATTGCTTAGGAAACAGACCAAGCGGAGTCACCTAGTGCAG”, for which the binding signal is 3660 fluorescence intensity (a.u.).

Turning to “CGTCAGTCACCTATCCCAAATTGCTCCAGGCCAAGCACGCCGGAGTCACCTAGTGCAG”, the binding signal is 4720 fluorescence intensity (a.u.). The value for “GTTGACTAGTATTTTCTTTCTTTTGATAAGATTTTCCCCACGGAGTCACCTAGTGCAG” was 4380 fluorescence intensity (a.u.); that for “TTAATTGTAAGTTTAACTATTGCTACTTCGCTTGCAGCGTCGGAGTCACCTAGTGCAG” was 13600 fluorescence intensity (a.u.); that for “AAGTGACCGAAATTGAATGAAAATTGTGCCGTCATATTTTCGGAGTCACCTAGTGCAG” was 14500 fluorescence intensity (a.u.). As for “CTATGCAAAATCTATATGATTTGTCCAATTTACCGTTACGCGGAGTCACCTAGTGCAG”, the binding signal was 4980 fluorescence intensity (a.u.). With “GTGTTGTGATTCAATTAATTTGGCAGACACCAATTTGCTGCGGAGTCACCTAGTGCAG”, the binding signal is 23200 fluorescence intensity (a.u.).

In the case of “CGAACTTTTGTCAATTAATACCGATATTGGCACAATGGCACGGAGTCACCTAGTGCAG”, the binding signal was 23700 fluorescence intensity (a.u.).

Take “TCTTAATCTCAATCTAACAACAGTACAGATCAACAAGTTTCGGAGTCACCTAGTGCAG”: the binding signal is 4380 fluorescence intensity (a.u.). In the case of “CACAAATTTGAACAAACACATTCATGATTCATCCCCTCCACGGAGTCACCTAGTGCAG”, the binding signal was 21700 fluorescence intensity (a.u.).

“ATGGCAATTACACACCGCCCCATCAGCCCCGTACTCGCTCCGGAGTCACCTAGTGCAG”: the binding signal is 3700 fluorescence intensity (a.u.). Regarding “AGAAGATTTATAACTTGTTGAGAAAACGTTAATCGTATTGCGGAGTCACCTAGTGCAG”, the binding signal is 5330 fluorescence intensity (a.u.). The value for “CTCAAAATTTAAATTTAAGGTTAAAAGTTAAAATTTTACGCGGAGTCACCTAGTGCAG” was 21200 fluorescence intensity (a.u.). With “GATGTGTTAATTTTGCTTGGCACGATTACAGTTTGGTTACCGGAGTCACCTAGTGCAG”, the binding signal is 4010 fluorescence intensity (a.u.). “TTAACATGATGCAAACTTAATTTTGGTCTCACCCTAATGTCGGAGTCACCTAGTGCAG”: the binding signal is 7310 fluorescence intensity (a.u.). Consider “CTAAAATTTGATTTTGATCCCTTGCATACCCTTCCCGTCACGGAGTCACCTAGTGCAG”, for which the binding signal was 17500 fluorescence intensity (a.u.).

Consider “TAATCGCATTGTAATTAATCACCAAAATCATTAGGGGCCTCGGAGTCACCTAGTGCAG”, for which the binding signal was 5100 fluorescence intensity (a.u.).

Regarding “TCTAAACCATCGGTCTGATTGTGGCGACCGATCTGGCGTGCGGAGTCACCTAGTGCAG”, the binding signal is 3430 fluorescence intensity (a.u.). On to “TTTGACATATATTTTCTTGGATATGAGTAGGGAATGACTTCGGAGTCACCTAGTGCAG”, for which the binding signal is 8040 fluorescence intensity (a.u.). For “AAATTAATCATTTGGGTTAATATAGTCCTTGGACCCAGAACGGAGTCACCTAGTGCAG”, the binding signal is 4960 fluorescence intensity (a.u.). With “TTCAATTACACAGGTCAATTCGGTTTTCTTAGTGACCAACCGGAGTCACCTAGTGCAG”, the binding signal was 6010 fluorescence intensity (a.u.). “AGGTAAATTAAGGTATAGAATTTCAGTTTTATCCATTACGCGGAGTCACCTAGTGCAG”: the binding signal is 4700 fluorescence intensity (a.u.). Consider “AAGATTTCCAGTCATCAGTCTGAGCGAGCTGTGCTTGTTGCGGAGTCACCTAGTGCAG”, for which the binding signal was 3360 fluorescence intensity (a.u.).

As for “TTGTCATTTCCAATCAAAATGACAAAATGTTTGTAGTTTTCGGAGTCACCTAGTGCAG”, the binding signal was 8560 fluorescence intensity (a.u.). “ACCTTGATGCCCTTGATTACTTTTAACGTCCTAATTAAGACGGAGTCACCTAGTGCAG”: the binding signal is 15900 fluorescence intensity (a.u.). Regarding “TATTAAGTGTCAATGATTGAAATGGATGATTTACCATGTGCGGAGTCACCTAGTGCAG”, the binding signal is 33200 fluorescence intensity (a.u.).

Turning to “AATAAATGGTTATGAACTAATGATTGATTGCGATGTAGGACGGAGTCACCTAGTGCAG”, the binding signal was 41900 fluorescence intensity (a.u.). As to “AAGGTTTAATTTGGTCTTTCACGTTTTATTTTGTCCATATCGGAGTCACCTAGTGCAG”, the binding signal is 4500 fluorescence intensity (a.u.). With “AGATGGCAGTAATTAGTTAATATGCAATTAAATTTAGCGTCGGAGTCACCTAGTGCAG”, the binding signal is 16100 fluorescence intensity (a.u.). On to “CCTATCAACAAATCACAATAATTATCCATTTAATTTCTTCCGGAGTCACCTAGTGCAG”, for which the binding signal is 9260 fluorescence intensity (a.u.). Turning to “CAATAATTTCAGCCCGCTAAACTAACCGGCCCACCAACCCCGGAGTCACCTAGTGCAG”, the binding signal was 5470 fluorescence intensity (a.u.). As to “AATTTATGCAATTTGGCCAATTATATATGTGGTTTTGGAACGGAGTCACCTAGTGCAG”, the binding signal is 3800 fluorescence intensity (a.u.).

In the case of “CTAATTTGATGTTGTAAATATTACTATATTTGTCTACAAGCGGAGTCACCTAGTGCAG”, the binding signal is 12600 fluorescence intensity (a.u.). On to “CTAAAGAAATTGAAGAGGCTATCAAGCTCTTGTGGATAGACGGAGTCACCTAGTGCAG”, for which the binding signal was 5350 fluorescence intensity (a.u.). With “TCTAATTAGTAAACTGTAGTAGTGAGCAAATTGTACTAGACGGAGTCACCTAGTGCAG”, the binding signal is 20900 fluorescence intensity (a.u.). For “AAACATCAATGATTATACCAATTTTATAACATTAGACGTACGGAGTCACCTAGTGCAG”, the binding signal was 8130 fluorescence intensity (a.u.). As to “TTTAATTGCGCCTAGAGAAGAAACAAATGTAAATAGGCCTCGGAGTCACCTAGTGCAG”, the binding signal was 10900 fluorescence intensity (a.u.). On to “ACTTGATTTTCTTGATTTACGAGATGGAGTTTTGCCTGTTCGGAGTCACCTAGTGCAG”, for which the binding signal is 29900 fluorescence intensity (a.u.). The figure for “TCCTGGTTCACCAATCACCAGCGATGATGACTTCTTGATCCGGAGTCACCTAGTGCAG” is 11100 fluorescence intensity (a.u.).

Consider “TAGATTGATTATCTTGTCAAGTTGCAGAAAATCCCAGGTACGGAGTCACCTAGTGCAG”, for which the binding signal is 48000 fluorescence intensity (a.u.). The value for “AATACTAATTAATTAATGGAATAAATATACTATAGGATTTCGGAGTCACCTAGTGCAG” was 45900 fluorescence intensity (a.u.); that for “GTATGAATGATTATGAAATTGCCCACGTTTTGGTCTGATTCGGAGTCACCTAGTGCAG” was 21100 fluorescence intensity (a.u.). The figure for “AACGCATCATGATTGTGTGTTGTAGTGGTGCGTACACATACGGAGTCACCTAGTGCAG” is 4380 fluorescence intensity (a.u.).

Turning to “TTGACTTAAATTATAATTTTAAACCATATATTATAATTGGCGGAGTCACCTAGTGCAG”, the binding signal is 31400 fluorescence intensity (a.u.). As for “TTCAAATCTAGATTTGAAAGTTTCAAAATCTAAGTTGTTTCGGAGTCACCTAGTGCAG”, the binding signal is 3650 fluorescence intensity (a.u.). For the sequence “AACATACCTCCTATAATTGGATATACTTGGATTCGTAACACGGAGTCACCTAGTGCAG”, the binding signal was 4970 fluorescence intensity (a.u.).

For the sequence “ATAAATTAACTCGGCTAGCTAGCTAGATAGAGCTCACGGCCGGAGTCACCTAGTGCAG”, the binding signal was 11400 fluorescence intensity (a.u.). Consider “TGTGATCGATTGATTGGGACAAAAGTTCATTTTAGAGTGGCGGAGTCACCTAGTGCAG”, for which the binding signal is 49800 fluorescence intensity (a.u.). With “TACTGTAATTACCCAATAACTATATTATAACTGCATTGCACGGAGTCACCTAGTGCAG”, the binding signal was 29700 fluorescence intensity (a.u.).
